# Measured values reported in the supplement of paper PMC10037445.
# Several values for one entry are separate records, joined by “and”; a condition that tells them apart may be missing. Identical values can stand only once. In all, about 2,900 compounds were measured (“NF-kB SEAP reporter activity, fold change vs agonist alone”: median about 0.99, highest 2% from about 2.6 on). The list shows a part of the results.
# Assays:
# RAW-Dual [1] = experiment: NF-kB SEAP reporter activity, fold change vs agonist alone; cytotoxicity flag (confluency mask): not cytotoxic; higher = enhanced NF-kB activity
# Outline: (§1)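 After 50 nL of library stock was delivered by pin tool to RAW-Dual macrophages (50,000 cells/well, DMEM, 384-well plates), a PRR agonist was added 1 h later and the plates were kept at 37 °C, 5% CO2. Twenty hours later, IRF was read from supernatant by QuantiLuc luminescence and NF-κB by QuantiBlue absorbance at 620 nm. Reporter activity is stated as fold change over agonist-alone wells. Wells with IncuCyte confluency under 70% of agonist controls in both mask sets were counted as cytotoxic.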
# RAW-Dual [2] = experiment: NF-kB SEAP reporter activity, fold change vs agonist alone; higher = enhanced NF-kB activity
# Outline: as §1
# [3] = agonist: ODN 1826 (TLR9) 0.5 ug/mL
# [4] = agonist: Pam2CSK4 (TLR2/6) 0.1 ug/mL
# [5] = agonist: Pam3CSK4 (TLR2/1) 0.1 ug/mL
# [6] = library stock concentration (final ~1000-fold dilution): 10 mM, cytotoxicity flag (confluency mask): not cytotoxic, agonist: Imiquimod (TLR7) […]
# [7] = library stock concentration (final ~1000-fold dilution): 10 mM, cytotoxicity flag (confluency mask): not cytotoxic, agonist: MPLA (TLR4) […]
compound,measurement,setting,value
CCCC(=O)OCOC(=O)C1=C(C)NC(C)=C(C(=O)OC)C1c1cccc(Cl)c1Cl (centres undefined) (library stock concentration (final ~1000-fold dilution): 10 mM),NF-kB SEAP reporter activity,RAW-Dual [1]; agonist: LPS (TLR4) 0.1 ug/mL,0.954
same,NF-kB SEAP reporter activity,RAW-Dual [1]; [3],1.19
same,NF-kB SEAP reporter activity,RAW-Dual [1]; [4],0.911
same,NF-kB SEAP reporter activity,RAW-Dual [1]; [5],1.1
CN1CCN(c2ccc(OC(F)(F)F)c(Nc3ncc4c(n3)-c3c(c(C(N)=O)nn3CCO)CC4)c2)CC1,NF-kB SEAP reporter activity,RAW-Dual [2]; [6],0.865
same,NF-kB SEAP reporter activity,RAW-Dual [2]; [7],0.831
CN1CCN(c2ccc(OC(F)(F)F)c(Nc3ncc4c(n3)-c3c(c(C(N)=O)nn3CCO)CC4)c2)CC1 (library stock concentration (final ~1000-fold dilution): 10 mM),NF-kB SEAP reporter activity,RAW-Dual [1]; agonist: LPS (TLR4) 0.1 ug/mL,0.453
same,NF-kB SEAP reporter activity,RAW-Dual [1]; [3],0.703
same,NF-kB SEAP reporter activity,RAW-Dual [1]; [4],0.551
same,NF-kB SEAP reporter activity,RAW-Dual [1]; [5],0.737
CN(C/C=C/C#CC(C)(C)C)Cc1cccc2ccccc12 (library stock concentration (final ~1000-fold dilution): 10 mM),NF-kB SEAP reporter activity,RAW-Dual [1]; agonist: LPS (TLR4) 0.1 ug/mL,4.26
same,NF-kB SEAP reporter activity,RAW-Dual [1]; [3],0.849
same,NF-kB SEAP reporter activity,RAW-Dual [1]; [4],0.95
same,NF-kB SEAP reporter activity,RAW-Dual [1]; [5],1.44
CN(C/C=C/C#CC(C)(C)C)Cc1cccc2ccccc12,NF-kB SEAP reporter activity,RAW-Dual [2]; [6],1.6
same,NF-kB SEAP reporter activity,RAW-Dual [2]; [7],2.02
O=C1NC(=O)/C(=C/c2cccc(C(F)(F)F)c2)S1,NF-kB SEAP reporter activity,RAW-Dual [2]; [6],0.601
same,NF-kB SEAP reporter activity,RAW-Dual [2]; [7],0.661
O=C1NC(=O)/C(=C/c2cccc(C(F)(F)F)c2)S1 (library stock concentration (final ~1000-fold dilution): 10 mM),NF-kB SEAP reporter activity,RAW-Dual [1]; agonist: LPS (TLR4) 0.1 ug/mL,0.461
same,NF-kB SEAP reporter activity,RAW-Dual [1]; [3],0.505
same,NF-kB SEAP reporter activity,RAW-Dual [1]; [4],0.442
same,NF-kB SEAP reporter activity,RAW-Dual [1]; [5],0.222
CC#Cc1cncc(-c2ccc3c(c2)C2(N=C(C)C(N)=N2)C2(CCC(OC)CC2)C3)c1 (centres undefined) (library stock concentration (final ~1000-fold dilution): 10 mM),NF-kB SEAP reporter activity,RAW-Dual [1]; agonist: LPS (TLR4) 0.1 ug/mL,1.15
same,NF-kB SEAP reporter activity,RAW-Dual [1]; [3],0.723
same,NF-kB SEAP reporter activity,RAW-Dual [1]; [4],0.809
same,NF-kB SEAP reporter activity,RAW-Dual [1]; [5],0.972
CC#Cc1cncc(-c2ccc3c(c2)C2(N=C(C)C(N)=N2)C2(CCC(OC)CC2)C3)c1 (centres undefined),NF-kB SEAP reporter activity,RAW-Dual [2]; [6],1.18
same,NF-kB SEAP reporter activity,RAW-Dual [2]; [7],1.01
Cn1cc(-c2ccc3nnc(Sc4ccc5ncccc5c4)n3n2)cn1,NF-kB SEAP reporter activity,"RAW-Dual [2]; library stock concentration (final ~1000-fold dilution): 2 mM, cytotoxicity flag (confluency mask): not cytotoxic, agonist: Imiquimod (TLR7) […]",1
same,NF-kB SEAP reporter activity,"RAW-Dual [2]; library stock concentration (final ~1000-fold dilution): 2 mM, cytotoxicity flag (confluency mask): not cytotoxic, agonist: MPLA (TLR4) […]",1
Cn1cc(-c2ccc3nnc(Sc4ccc5ncccc5c4)n3n2)cn1 (library stock concentration (final ~1000-fold dilution): 2 mM),NF-kB SEAP reporter activity,RAW-Dual [1]; agonist: LPS (TLR4) 0.1 ug/mL,1.33
same,NF-kB SEAP reporter activity,RAW-Dual [1]; [3],1.02
same,NF-kB SEAP reporter activity,RAW-Dual [1]; [4],1.16
same,NF-kB SEAP reporter activity,RAW-Dual [1]; [5],1.11
CC1(C)CCC2(C(=O)O)CCC3(CO)C(=CCC4C5(C)CC(O)C(OC6OC(CO)C(O)C(O)C6O)C(C)(C(=O)O)C5CCC43C)C2C1 (centres undefined) (library stock concentration (final ~1000-fold dilution): 10 mM),NF-kB SEAP reporter activity,RAW-Dual [1]; agonist: LPS (TLR4) 0.1 ug/mL,1.15
same,NF-kB SEAP reporter activity,RAW-Dual [1]; [3],0.882
same,NF-kB SEAP reporter activity,RAW-Dual [1]; [4],1.06
same,NF-kB SEAP reporter activity,RAW-Dual [1]; [5],1.1
CC1(C)CCC2(C(=O)O)CCC3(CO)C(=CCC4C5(C)CC(O)C(OC6OC(CO)C(O)C(O)C6O)C(C)(C(=O)O)C5CCC43C)C2C1 (centres undefined),NF-kB SEAP reporter activity,RAW-Dual [2]; [6],0.922
same,NF-kB SEAP reporter activity,RAW-Dual [2]; [7],1.01
CN1CCN(C2CCN(C(=O)Nc3cc(Oc4ccc(NC(=O)C5(C(=O)Nc6ccc(F)cc6)CC5)c(F)c4)ccn3)CC2)CC1,NF-kB SEAP reporter activity,"RAW-Dual [2]; library stock concentration (final ~1000-fold dilution): 10 mM, cytotoxicity flag (confluency mask): cytotoxic (confluency <70% of control), agonist: Imiquimod (TLR7) […]",2.76
CC(C)(C)Cn1c(N)nc2ccc(-c3[nH]c(C(C)(C)C)nc3-c3ccc(F)cc3)nc21.CS(=O)(=O)O.CS(=O)(=O)O (library stock concentration (final ~1000-fold dilution): 10 mM water),NF-kB SEAP reporter activity,RAW-Dual [1]; agonist: LPS (TLR4) 0.1 ug/mL,1.03
same,NF-kB SEAP reporter activity,RAW-Dual [1]; [3],0.512
same,NF-kB SEAP reporter activity,RAW-Dual [1]; [4],0.242
same,NF-kB SEAP reporter activity,RAW-Dual [1]; [5],0.506
CC(C)(C)Cn1c(N)nc2ccc(-c3[nH]c(C(C)(C)C)nc3-c3ccc(F)cc3)nc21.CS(=O)(=O)O.CS(=O)(=O)O,NF-kB SEAP reporter activity,"RAW-Dual [2]; library stock concentration (final ~1000-fold dilution): 10 mM water, cytotoxicity flag (confluency mask): not cytotoxic, agonist: Imiquimod (TLR7) […]",0.303
same,NF-kB SEAP reporter activity,"RAW-Dual [2]; library stock concentration (final ~1000-fold dilution): 10 mM water, cytotoxicity flag (confluency mask): not cytotoxic, agonist: MPLA (TLR4) […]",0.892
O=C(O)CSCC(=O)NC1CCSC1=O (centres undefined) (library stock concentration (final ~1000-fold dilution): 10 mM),NF-kB SEAP reporter activity,RAW-Dual [1]; agonist: LPS (TLR4) 0.1 ug/mL,1.33
same,NF-kB SEAP reporter activity,RAW-Dual [1]; [3],1.08
same,NF-kB SEAP reporter activity,RAW-Dual [1]; [4],1.12
same,NF-kB SEAP reporter activity,RAW-Dual [1]; [5],0.974
O=C(O)CSCC(=O)NC1CCSC1=O (centres undefined),NF-kB SEAP reporter activity,RAW-Dual [2]; [6],0.922
same,NF-kB SEAP reporter activity,RAW-Dual [2]; [7],1.04
COc1ccccc1C(=O)Nc1cc2c(cc1N1CCNCC1C)n(C)c(=O)n2C (centres undefined),NF-kB SEAP reporter activity,RAW-Dual [2]; [6],1.01
same,NF-kB SEAP reporter activity,RAW-Dual [2]; [7],1.37
COc1ccccc1C(=O)Nc1cc2c(cc1N1CCNCC1C)n(C)c(=O)n2C (centres undefined) (library stock concentration (final ~1000-fold dilution): 10 mM),NF-kB SEAP reporter activity,RAW-Dual [1]; agonist: LPS (TLR4) 0.1 ug/mL,1.48
same,NF-kB SEAP reporter activity,RAW-Dual [1]; [3],0.383
same,NF-kB SEAP reporter activity,RAW-Dual [1]; [4],0.997
same,NF-kB SEAP reporter activity,RAW-Dual [1]; [5],0.973
COc1ccc2nc([S+]([O-])Cc3ncc(C)c(OC)c3C)[nH]c2c1 (centres undefined) (library stock concentration (final ~1000-fold dilution): 10 mM),NF-kB SEAP reporter activity,RAW-Dual [1]; agonist: LPS (TLR4) 0.1 ug/mL,0.958 and 1.17
same,NF-kB SEAP reporter activity,RAW-Dual [1]; [3],0.94 and 1.03
same,NF-kB SEAP reporter activity,RAW-Dual [1]; [4],0.986 and 1.08
same,NF-kB SEAP reporter activity,RAW-Dual [1]; [5],0.965 and 0.978
CCCCCCCCCCCCCCCC(=O)OC1C(SC)OC(C(NC(=O)C2CC(CCC)CN2C)C(C)Cl)C(O)C1O.Cl (centres undefined),NF-kB SEAP reporter activity,RAW-Dual [2]; [6],1.2
same,NF-kB SEAP reporter activity,RAW-Dual [2]; [7],0.983
CCCCCCCCCCCCCCCC(=O)OC1C(SC)OC(C(NC(=O)C2CC(CCC)CN2C)C(C)Cl)C(O)C1O.Cl (centres undefined) (library stock concentration (final ~1000-fold dilution): 10 mM),NF-kB SEAP reporter activity,RAW-Dual [1]; agonist: LPS (TLR4) 0.1 ug/mL,0.968
same,NF-kB SEAP reporter activity,RAW-Dual [1]; [3],1.08
same,NF-kB SEAP reporter activity,RAW-Dual [1]; [4],0.877
same,NF-kB SEAP reporter activity,RAW-Dual [1]; [5],0.713
